{"source": "PubChem BioAssay AID686979", "about": "(National Center for Advancing Translational Sciences (NCATS), 2013)", "note": "Several values for one entry are separate records, joined by “and”; a condition that tells them apart may be missing. Equal entries are not always repeated. In all, about 420,000 compounds went through this assay and about 50,000 (12%) were called active. Inconclusive means that the source gave no clear call. Such entries were picked first, then a sample of the others. The call rests on the fitted dose curve; in most records, active means well fitted inhibition curve with a large enough effect; inconclusive means small, poorly fitted or top-dose-only effect; inactive means flat fitted curve, though single readings scatter. Potencies beside an inconclusive call are fits to weak or partial responses and may not hold up. On the % scale 0 is the no-effect control and ±100 the full control effect; potency means the concentration at half of the fitted maximal effect; tags describe the fitted curve by direction and shape.", "data": [{"assay": "qHTS for Inhibitors of human tyrosyl-DNA phosphodiesterase 1 (TDP1): qHTS in cells in presence of CPT; further: nearly all actives have a fitted effect of over 55% in size", "settings": "chicken DT40 Tdp1-/-;hTDP1 cells + 20 nM CPT, ATP luminescence, 48 h; activity change, negative = growth inhibition: at 46.2 µM (top of the series) unless noted", "method_in_brief": "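Chicken DT40 Tdp1-/- cells complemented with human TDP1, 400 cells/well, exposed to compounds plus 20 nM camptothecin for at least 48 h at 37 C; viability read as ATP content by CellTiter-Glo luminescence.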", "values": [{"smiles": "Cc1ccc(-c2ccc(=O)n(Cc3cc(C)ccc3C)n2)cc1", "Potency": "inactive and inconclusive: 29.1 µM [inhibitor, single point]"}, {"smiles": "OC(c1ccc(Cl)c(F)c1)c1ncc(-c2cccc(F)c2)[nH]1", "note": "(stereo not given)", "Potency": "inconclusive: 10.3 µM [inhibitor, partial curve]"}, {"smiles": "Cc1ccc(-n2c(C)n[nH]c2=S)cc1", "activity change, negative = growth inhibition": "inactive: 3.15%"}, {"smiles": "CC(=O)Nc1ccc(S(=O)(=O)NCCC(=O)N2CCC(Cc3ccccc3)CC2)cc1", "Potency": "inconclusive: 25.9 µM [inhibitor, single point]"}, {"smiles": "CCCOc1ccc(-c2nnn(CC(=O)N3CCCCC3)n2)cc1", "Potency": "inconclusive: 29.1 µM [inhibitor, single point]"}, {"smiles": "Cc1ccc(C(C)C)c(OCC(=O)Nc2cccc(NC(=O)c3ccco3)c2)c1", "Potency": "inconclusive: 11.6 µM [inhibitor, single point]"}, {"smiles": "Cn1nc(-c2ccccc2)c(-c2nc(-c3cccc(Cl)c3)no2)c1Cl", "Potency": "inconclusive: 25.9 µM [inhibitor, partial curve, poor fit]"}, {"smiles": "CS(=O)(=O)c1ccc2nc(NC(=O)CN3C(=O)NC4(CCCC4)C3=O)sc2c1", "activity change, negative = growth inhibition": "inactive: 1.29%"}, {"smiles": "Cn1nc([N+](=O)[O-])nc1Sc1ccc(Cl)cc1", "Potency": "inconclusive: 29.1 µM [inhibitor, single point]"}, {"smiles": "CN(C)c1ccc(C=C2c3ccccc3-c3ccccc32)cc1", "Potency": "inconclusive: 7.08 µM [inhibitor, partial curve]"}, {"smiles": "COc1cc(-c2cc(C(=O)Nc3ccncc3)c3ccccc3n2)cc(OC)c1OC", "Potency": "active: 2.91 µM"}, {"smiles": "c1ccc2c(c1)ncn2CCCCOc1ccc2c(c1)CCC2", "Potency": "inconclusive: 16.4 µM [inhibitor, single point]"}, {"smiles": "CN(CCO)c1c2c(nc3cc(-c4cccc(F)c4)nn13)CCCC2", "Potency": "inconclusive: 29.1 µM [inhibitor, single point]"}, {"smiles": "COC(=O)c1cc(S(=O)(=O)NCc2ccc(F)cc2)cn1C", "activity change, negative = growth inhibition": "inactive: -20.9%"}, {"smiles": "Cn1c(SCC(=O)NCc2ccco2)nnc1-c1ccc(NC(=O)c2ccccc2)cc1", "activity change, negative = growth inhibition": "inactive: -7.4%"}, {"smiles": "c1cnc(SCCOc2ccc3c(c2)CCC3)nc1", "Potency": "inconclusive: 23.1 µM [inhibitor, partial curve]"}, {"smiles": "CC1Nc2ncnc(N3CCc4ccccc4C3)c2N(Cc2ccccc2)C1=O", "note": "(stereo not given)", "Potency": "active: 20.6 µM"}, {"smiles": "Cc1ccc(S(=O)(=O)NC2CCCCCC2)cc1C(N)=O", "Potency": "inconclusive: 14.6 µM [inhibitor, partial curve]"}, {"smiles": "O=C(COc1ccc2c(c1)OCO2)Nc1ccc(Cl)cn1", "Potency": "inconclusive: 5.8 µM [inhibitor, single point]"}, {"smiles": "COc1ccc(OC)c(NC(=O)c2cc(-c3cc(Cl)ccc3O)n[nH]2)c1", "Potency": "active: 18.4 µM"}, {"smiles": "Cc1ccccc1-n1nc(C)c2cc(C(=O)N3CCN(S(=O)(=O)c4ccc(Cl)cc4)CC3)sc21", "Potency": "inconclusive: 20.6 µM [inhibitor, partial curve]"}, {"smiles": "Cc1ccccc1/C=C1\\Oc2ccccc2C1=O", "Potency": "inconclusive: 18.4 µM [inhibitor, single point]"}, {"smiles": "Cc1ccc(C)n1-c1ccc(C(=O)/C=C/N(C)C)cc1", "Potency": "inconclusive: 20.6 µM [inhibitor, single point]"}, {"smiles": "CC(C)(C)c1ccc(-c2n[nH]c(=S)n2-c2ccccc2)cc1", "activity change, negative = growth inhibition": "inactive: -15.7%"}, {"smiles": "CCn1nnc2cc(C(=O)N3CCC(C(=O)OC)CC3)ccc21", "activity change, negative = growth inhibition": "inactive: 2.41%"}, {"smiles": "O=c1c2ccccc2nnn1COc1cccc2ccccc12", "Potency": "inconclusive: 32.6 µM [inhibitor, single point]"}, {"smiles": "C=C(C)c1cccc(C(C)(C)NC(=O)N(Cc2ccccc2)Cc2ccco2)c1", "Potency": "active: 16.4 µM"}, {"smiles": "COc1cc(OC)c(C2Nc3ccccc3NC3=C2C(=O)CC(C)(C)C3)cc1OC", "note": "(stereo not given)", "activity change, negative = growth inhibition": "inactive: -3.69%"}, {"smiles": "CCOc1ccc(-n2c(CCC(=O)O)ccc2-c2ccc(Br)cc2)cc1", "Potency": "inconclusive: 29.1 µM [inhibitor, single point]"}, {"smiles": "CCN(c1cc(C)cc(C)c1)S(=O)(=O)c1nnc(NC(=O)c2cccs2)s1", "Potency": "inconclusive: 23.1 µM [inhibitor, single point]"}, {"smiles": "Cc1cc(NC(=O)CCC(=O)N(c2ccccc2C)C(C(=O)NC2CCCC2)c2ccccc2)no1", "note": "(stereo not given)", "activity change, negative = growth inhibition": "inconclusive: -34% [inhibitor]"}, {"smiles": "CCOc1ccc(NC(=O)c2ccc(N3CC4CC(C3)c3cccc(=O)n3C4)c(N)c2)cc1", "note": "(stereo not given)", "Potency": "inconclusive: 14.6 µM [inhibitor, partial curve]"}, {"smiles": "COc1ccccc1Oc1ccc(S(=O)(=O)N2CCOCC2)cc1S(=O)(=O)N1CCOCC1", "activity change, negative = growth inhibition": "inactive: 7.5%"}, {"smiles": "COc1ccc([C@H]2C[C@@H](n3cc(C4CC4)nn3)[C@H](O)CN2CC2CCCCC2)cc1", "Potency": "inconclusive: 29.1 µM [inhibitor, single point]"}, {"smiles": "COC(=O)[C@@]1(Cc2ccccc2)[C@H]2C(=O)N(C)C(=O)[C@H]2[C@H]2CN=C(SCc3ccc(C)cc3)N21", "Potency": "active: 18.4 µM"}]}]}
